Laboratory results from the supplement of paper PMC4166925.
± gives the standard deviation of the averaged measurements. The full ranking holds about 33,000 sequences; the median of “E-score (dimensionless, -0.5 to 0.5)” is about -0.049, and the highest 2% start at about 0.37. The list shows a part of the results.

test system: T1, PmTbr T-box DNA-binding domain (GST fusion); assay: PBM E-score of 8-mer (E-score (dimensionless, -0.5 to 0.5)); Tbr is Tbrain of the sea star Patiria miniata (Pm) or the sea urchin Strongylocentrotus purpuratus (Sp); higher = stronger binding preference; most listed sequences are background and not binding sites; conditions: the construct has about 5 more residues each side
T1 sequence: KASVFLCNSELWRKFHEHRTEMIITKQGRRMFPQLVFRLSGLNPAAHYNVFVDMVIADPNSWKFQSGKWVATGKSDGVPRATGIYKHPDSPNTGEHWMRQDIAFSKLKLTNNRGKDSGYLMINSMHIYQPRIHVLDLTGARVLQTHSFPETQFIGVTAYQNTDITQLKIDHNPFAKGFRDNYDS
Description: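 Universal protein-binding microarray (Agilent AMADID 016060, 60-bp probes with a 35-bp variable region) incubated with 200 nM GST-fused Patiria miniata Tbr T-box DNA-binding domain (residues 272-466) in PBS pH 7.5. Scored for every ungapped 8-mer (given with its reverse complement) by the Universal PBM Analysis Suite as E-score (modified Wilcoxon-Mann-Whitney enrichment, range -0.5 to 0.5; >0.45 counts as bound) and Z-score of median probe intensity. Two replicate arrays (datasets 1 and 2).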
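Further: 200 nM protein in PBS on universal arrays averaged over duplicate arrays.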

Sequence	PBM E-score of 8-mer
CACCGGTG	0.118 ± 0.02
ATTGATGG	-0.0997 ± 0.1
CGACGGAG	-0.228 ± 0.049
GAAGGTCA	0.00198 ± 0.022
CCGTTCAC	0.363 ± 0.032
CCTACGAA	-0.185 ± 0.08
ACCTCCTC	0.194 ± 0.07
CTTGTGTA	-0.0312 ± 0.044
CCGAAAGA	-0.15 ± 0.017
CGCATCGC	0.132 ± 0.0025
GAATCTCC	-0.207 ± 0.018
CCCTTCTC	-0.185 ± 0.1
GTTTTCGA	-0.0457 ± 0.054
CATTGGTC	-0.0726 ± 0.0062
CACAAATC	0.152 ± 0.015
AACGAAAG	-0.213 ± 0.061
GGGGTGGA	-0.0293 ± 0.00067
AAAGTTCC	-0.0189 ± 0.053
GAGCCGGC	-0.195 ± 0.059
TCATGAAA	-0.155 ± 0.094
AGTTTATG	-0.166 ± 0.021
CAGTTCGG	-0.194 ± 0.042
ATGTGTCG	0.402 ± 0.0094
CACCTCTC	0.419 ± 0.023
CTAAGATA	0.113 ± 0.08

Sequence	PBM E-score of 8-mer
CGTGAGCC	-0.00439 ± 0.056
ATCAATTA	-0.0764 ± 0.18
AGCAATAC	-0.131 ± 0.023
ACTTTCCG	0.0265 ± 0.076
AGGTGGCG	0.412 ± 0.023
ACCTTGGG	0.00928 ± 0.0083
TGTGTGAA	0.4728 ± 0.0017
TCTACAAA	-0.119 ± 0.006
AATGTAGT	-0.082 ± 0.11
ACTTGAGA	0.211 ± 0.021
AATCTTAT	-0.0504 ± 0.069
AACATGTA	-0.0486 ± 0.06
CAAGCTTG	0.0509 ± 0.017
ATGCCCTG	-0.173 ± 0.021
AGAGGAAT	-0.19 ± 0.026
CAGTTCTC	0.1801 ± 0.00042
GATGCGTA	0.00998 ± 0.021
CTATCTCA	0.16 ± 0.025
AGACTTTC	-0.00978 ± 0.08
AAACCCCC	-0.123 ± 0.018
ACATAATC	-0.0607 ± 0.0033
GAGTTCCC	-0.291 ± 0.0084
AGAGTATA	-0.0854 ± 0.04
ATGAGCCG	-0.0592 ± 0.039
ACCTTCTG	0.0725 ± 0.01

Sequence	PBM E-score of 8-mer
ACAGCGCC	0.0632 ± 0.073
AAGACCTA	-0.243 ± 0.043
CTCGGGTA	-0.138 ± 0.011
ACAGGTCA	0.124 ± 0.051
AATACGGG	-0.108 ± 0.013
CGCCCGTC	0.0562 ± 0.17
GTGTACTA	-0.0987 ± 0.0014
GTCGGAAA	-0.0258 ± 0.018
GTAAGGTA	-0.0348 ± 0.066
ATTCTACG	-0.294 ± 0.065
GCGCCGCC	0.0263 ± 0.12
GGGGCTCA	-0.171 ± 0.025
AAAAAGCG	0.0254 ± 0.042
ACCGACAA	-0.0367 ± 0.05
GCTGTCGA	0.187 ± 0.014
CACTTACA	0.268 ± 0.0083
CCCTATCC	0.0967 ± 0.02
AAAGAAAT	-0.0667 ± 0.016
CACTGCTG	-0.132 ± 0.038
CATTTGAG	-0.195 ± 0.0064
ATTCCCCG	-0.0984 ± 0.03
AATTTCAT	-0.0528 ± 0.062
CGGGACCA	-0.178 ± 0.082
AAGTCCCA	-0.0928 ± 0.075
CAACAGTA	-0.0685 ± 0.048

Sequence	PBM E-score of 8-mer
AATATTCA	-0.0178 ± 0.073
CTGAGTGA	0.0367 ± 0.03
AGTAGATC	-0.323 ± 0.031
GTCGAATA	-0.113 ± 0.031
CATAATGG	0.00285 ± 0.034
CACAGCGA	0.0526 ± 0.053
CCGTTACC	-0.0335 ± 0.09
AGACGGAG	0.0235 ± 0.00075
ATACGCTA	-0.0402 ± 0.067
GATATGAA	0.133 ± 0.062
ATCTTAGA	-0.0793 ± 0.081
ATTATGTA	-0.122 ± 0.044
CACTAATG	0.0749 ± 0.0057
ACCAGTCT	-0.146 ± 0.029
ACTCCCCC	-0.313 ± 0.013
ACTTGAAC	-0.192 ± 0.034
GTGACGCA	0.247 ± 0.0029
AAGTATAC	0.00161 ± 0.031
ACGTCTGG	-0.162 ± 0.011
CGTCTCTC	-0.0954 ± 0.065
ACCGGTTG	-0.00328 ± 0.0079
ACTCTTCA	0.0433 ± 0.026
AACTCTTG	-0.127 ± 0.013
AACACGGC	0.162 ± 0.017
AGTCTGGG	-0.241 ± 0.012

Sequence	PBM E-score of 8-mer
ATAAGGCC	-0.236 ± 0.055
AGCAATGC	-0.245 ± 0.029
AGATGGGA	-0.103 ± 0.051
AGTCGATA	0.147 ± 0.016
AGACAGAT	0.0227 ± 0.038
TGTCATAA	0.313 ± 0.013
GCGACTCC	0.129 ± 0.013
ATTCCTAA	-0.201 ± 0.082
CTCTGCAA	-0.153 ± 0.011
AAACGAAG	-0.193 ± 0.039
CGACGTTC	-0.118 ± 0.032
GATCAAAA	-0.0678 ± 0.011
GTGCGCCA	0.0331 ± 0.033
TGGCTAAA	-0.229 ± 0.036
GTAAAAAA	-0.0133 ± 0.15
ACTCCTCG	0.219 ± 0.032
ACAGTGCG	0.251 ± 0.025
GAGCGATA	0.0896 ± 0.013
GCGCACAA	-0.101 ± 0.045
AAGAATAT	-0.29038 ± 4.2e-05
CTAGTTGC	0.117 ± 0.043
AGTCGTTA	0.0549 ± 0.084
CGTCCCCC	-0.328 ± 0.11
ACGGTGTA	0.16 ± 0.0067
ATAATCGG	-0.0796 ± 0.0029

Sequence	PBM E-score of 8-mer
GCGGAAAC	0.107 ± 0.023
ATACCATC	-0.234 ± 0.068
CCTTGTTA	0.126 ± 0.011
ATCTGATG	-0.119 ± 0.0066
GTATCTAA	-0.138 ± 0.028
GAACATAC	-0.0947 ± 0.0069
ACAAAAAC	0.0645 ± 0.095
GGCAACAC	0.38 ± 0.0047
AGGCAGTA	-0.128 ± 0.0066
TAACGAAA	-0.0105 ± 0.087
TCCGTACA	-0.207 ± 0.008
GACTACAA	-0.133 ± 0.02
ACGAGCGA	0.0487 ± 0.042
GAATGGCA	0.00346 ± 0.0012
CAGGAGGA	-0.126 ± 0.0036
CGCAGATA	-0.0245 ± 0.036
ATCTCGAC	-0.0257 ± 0.043
AAATTTAC	0.1 ± 0.031
GAAAAACC	0.112 ± 0.065
CTCGGTGC	-0.0448 ± 0.12
CGCACTGC	0.0715 ± 0.075
AAGCGGGG	-0.255 ± 0.0093
CGTTTAAG	-0.081 ± 0.081
ACGCAGGG	0.022 ± 0.024
AACCATCG	-0.0291 ± 0.073

Sequence	PBM E-score of 8-mer
AGCTCAGC	-0.0662 ± 0.065
GGTACCGA	0.0175 ± 0.024
CACAGCTG	0.296 ± 0.0054
CTCACGGC	0.079 ± 0.024
ATTGTACC	-0.1948 ± 0.0018
TACGCCGA	-0.22 ± 0.099
GGCACTTA	0.309 ± 0.045
AAATAGGG	-0.0426 ± 0.12
AGTCTTAG	-0.0345 ± 0.08
CAGTTAGG	-0.0835 ± 0.0084
ACCTTGAG	0.132 ± 0.033
ACCAGGGT	0.0951 ± 0.014
CAGAATGG	-0.0745 ± 0.015
GGGTAAAC	0.0588 ± 0.025
GAACAGTA	-0.0332 ± 0.032
CCGGCCCC	-0.24 ± 0.058
GTTATACA	0.0491 ± 0.056
AACTGTAC	-0.0664 ± 0.015
GTGAATCA	0.0963 ± 0.0088
AGCGAATA	0.0489 ± 0.053
CTGATGTA	-0.109 ± 0.032
TCAATGCA	-0.268 ± 0.037
